Data reported in PubChem BioAssay AID1745853 (National Center for Advancing Translational Sciences (NCATS), 2022).
The other results are listed elsewhere or left out. These are further read-outs of the screen, such as a control signal, another cell line or another target. No call is given for them.

Tests used:
Assay in all cases: Primary Screen for Target Class Profiling of Small Molecule Inhibitors of Methyltransferases
[1] = target: Glycine N-methyltransferase (Homo sapiens) (UniProt Q14749); conditions: purified enzyme, MTase-Glo SAH luminescence; measured here: GNMT inhibition; at 40 µM; stronger effect = lower value
From the text: (§1) PI: Matthew D. Hall Ph.D. and Quinlin M. Hanson Ph.D.
(§2) National Center for Advancing Translational Sciences (NCATS)
(§3) National Institute of Health (NIH), Rockville, MD
(§4) Target class profiling (TCP) is a chemical biology approach amenable to investigating understudied biological targets. TCP is achieved by developing a generalizable assay platform and applying it to screen a curated set of compound libraries against representative members of a target class. Small molecule methyltransferases (SMMTase) are a subclass of methyltransferase that act on metabolites to modulate signaling pathways, metabolize xenobiotics, or balance the available methyl pool. We screened four curated libraries totaling 27,574 unique compounds against the SMMTases nicotinamide N-methyltransferase (NNMT), phenylethanolamine N-methyltransferase (PNMT), histamine N-methyltransferase (HNMT), glycine N-methyltransferase (GNMT), catechol O-methyltransferase (COMT), and guanidinoacetate N-methyltransferase (GAMT). The data generated by this TCP can be leveraged for informed tool molecule development. For example, in the associated publication we identified a chemotype of HNMT-selective inhibitors. Additionally, we identified a putative SMMTase-selective inhibitor with potential as a tool molecule for studying broader methyltransferase biology.
(§5) High-through put screening assays were developed at the National Center for Advancing Translational Science (NCATS) for the enzymes NNMT, PNMT, HNMT, GNMT, COMT, and GAMT. Enzymatic activity was measured as a function of SAM cofactor conversion using the MTase Glo kit (Promega) for all enzymes. All assays were performed in 1536-well format with substrates and SAM concentrations at KM values. Enzyme concentration and assay timing were optimized for 10-20% SAM conversion. Initial screening of 27,574 compounds was done as single-point assays using the highest compound concentration (40 uM). […] These compounds were replated in 11-point dose response and assayed against NNMT, PNMT, HNMT, GNMT, COMT, GAMT, and a counter-assay. The IC50 and efficacy (maximal response) values were determined for each dose-response curve. These values are also accounted for in the area under the curve (AUC) values.
(§6) PROTOCOL TABLE (as described by Inglese J, Shamu CE and Guy RK. 2007)
(§7) SEQUENCE No. (e.g., 1, 2, 3, etc.); […] (e.g., Cells, Incubation, Reagent, etc.); VALUE; DESCRIPTION.
(§8) 1; Reagent; 2 uL; SMMTase Enzyme (2x) in reaction buffer, columns 1- 48.
(§9) 2; Reagent; 1 uL; SAM (4x) in reaction buffer, columns 1-48.
(§10) 3; Controls; 23 nL; DMSO in column 4; sinefungin in DMSO (0 uM - 40 uM) in 7-point 1:2 dilution series (n = 2) in column 2.
(§11) 4; Compounds; 23 nL; Columns 5-48.
(§12) 5; Reagent; 1 uL; Substrate (4x) in reaction buffer, columns 2-48.
(§13) 6; Time; 20-30 min; Incubation.
(§14) 7; Reagent; 1 uL; MTase-Glo reagent (5X), columns 1-48.
(§15) 8; Time; 30 min; Incubation.
(§16) 9; Reagent; 5 uL; MTase-Glo Detection reagent, columns 1-48.
(§17) 10; Time; 30 min; Incubation, luminescence evolution.
(§18) 11; Detection; Luminescence; ViewLux uHTS Microplate Imager (PerkinElmer).
(§19) NOTES (numbers refer to Sequence numbers above)
(§20) 1, 2, 5. White Medium Binding Greiner 1536-well plates (Cat #789175-F, Greiner Bio-One, Monroe, NC); Reaction buffer: 50 mM Tris, pH 8.0, 3 mM MgCl2, 1 mM EDTA, 50 mM NaCl, 1 mM DTT, and 0.1 mg/mL BSA. Evaporation was prevented by covering assay plates with metal lids containing holes to allow gas diffusion.
(§21) 1. Six SMMTase were profiled: HNMT, GNMT, PNMT, COMT, NNMT, GAMT
(§22) 5. The corresponding substrate was used for each enzyme: HNMT - 5.3 uM Histamine; GNMT - >500 uM Glycine; PNMT - 16.2 uM Norephinephrine; COMT - 13.7 uM Norephinephrine; NNMT - 3.8 uM Nicotinamide; GAMT - 2.5 uM Guanidinoacetate.6, 8, 10. Room temperature
(§23) 6. Final reaction conditions: 10 nM COMT, 5 uM SAM, 15 uM norepinephrine, 50 mM Tris, pH 8.0, 3 mM MgCl2, 1 mM EDTA, 50 mM NaCl, 1 mM DTT, and 0.1 mg/mL BSA; refer to tables 2 and S1 for specific timing.
8. […]

[2] = target: Guanidinoacetate N-methyltransferase (Homo sapiens) (UniProt Q14353); conditions: purified enzyme, MTase-Glo SAH luminescence; measured here: GAMT inhibition; at 40 µM; stronger effect = lower value
From the text: as §1, §2, §3, §4, §5, §6, §7, §8, §9, §10, §11, §12, §13, §14, §15, §16, §17, §18, §19, §20, §21, §22, §23
8. […]

[3] = target: Histamine N-methyltransferase (Homo sapiens) (UniProt P50135); conditions: purified enzyme, MTase-Glo SAH luminescence; measured here: HNMT inhibition; at 40 µM; stronger effect = lower value
From the text: as §1, §2, §3, §4, §5, §6, §7, §8, §9, §10, §11, §12, §13, §14, §15, §16, §17, §18, §19, §20, §21, §22, §23
8. […]

[4] = target: Nicotinamide N-methyltransferase (Homo sapiens) (UniProt P40261); conditions: purified enzyme, MTase-Glo SAH luminescence; measured here: NNMT inhibition; at 40 µM; stronger effect = lower value
From the text: as §1, §2, §3, §4, §5, §6, §7, §8, §9, §10, §11, §12, §13, §14, §15, §16, §17, §18, §19, §20, §21, §22, §23
8. […]

[5] = target: Phenylethanolamine N-methyltransferase (Homo sapiens) (UniProt P11086); conditions: purified enzyme, MTase-Glo SAH luminescence; measured here: PNMT inhibition; at 40 µM; stronger effect = lower value
From the text: as §1, §2, §3, §4, §5, §6, §7, §8, §9, §10, §11, §12, §13, §14, §15, §16, §17, §18, §19, §20, §21, §22, §23
8. […]
% is set by controls: 0 for no effect and ±100 for the full control effect.

SMILES | activity change, negative = inhibition [1] [%] | activity change, negative = inhibition [2] [%] | activity change, negative = inhibition [3] [%] | activity change, negative = inhibition [4] [%] | activity change, negative = inhibition [5] [%]
CCc1ccccc1NC(=O)Cn1c(=O)oc2cc(S(=O)(=O)N3CCCC3)ccc21 | 0.498 | 5.53 | 0.073 | 7.23 | -1.05
CNC(=O)[C@@H]1CN(C(=O)CCc2cccc(OC)c2)C[C@H]1c1n[nH]c(C)n1 | 0.138 | 1.36 | 1.81 | 5.76 | 5.16
Cc1ccc(C)c(-c2cc(C(=O)N3CCCC3c3nncn3C(C)C)[nH]n2)c1 (stereo not given) | -3.11 | -2.88 | -0.582 | -7.92 | -14.5
O=C(OC1C=C(CO)C2C(OC3OC(CO)C(O)C(O)C3O)OC=CC12O)c1ccc(O)cc1 (stereo not given) | -1.78 | -4.53 | 4.1 | -13.9 | -1.86
CC1(C(=O)NC2CCCCCCC2)Cn2c(ccc2-c2ccco2)C(=O)N1CCCN1CCOCC1 (stereo not given) | 0.604 | 0.088 | 8.51 | 7.47 | 2.23
O=C1CCC(C(=O)N2CCOCC2)CN1CCCc1ccccc1 (stereo not given) | -1.54 | -0.548 | 2.13 | 0.874 | -7.15
O=C(CSc1nnnn1-c1ccccc1)Nc1ccc2[nH]c(=O)[nH]c2c1 | -7.36 | 0 | -3.81 | -10.8 | -10.6
CC(C)[C@@H]1CC[C@@H](C)C[C@@H]1P(=O)(c1ccccc1)c1ccccc1 | -3.1 | 3 | -5.25 | -9.43 | 1.71
COc1ccc2cc3n(c2c1)CC(C)(C(=O)NC1CCCCC1)N(Cc1ccc(Cl)cc1)C3=O (stereo not given) | 3.04 | 0.429 | 4.43 | 7.74 | -1.36
Cc1cccc(-c2n[nH]n3c2nc(=O)c2ccc(C(=O)NCc4ccc(Cl)cc4)cc23)c1 | -23.3 | 0.072 | -0.458 | -11.1 | -3.78
O=C(CSc1nnc2n(CCc3ccccc3)c(=O)c3ccccc3n12)Nc1cccc(Cl)c1 | -2.29 | 2.77 | 2.81 | -1.07 | -3.23
CCC(Nc1ncnc2nc[nH]c12)c1nc2cccc(F)c2c(=O)n1-c1ccccc1 (stereo not given) | -5.05 | -3.3 | 5.76 | -18.6 | 4.3
C[C@@H]1CCC2C(C)(C)[C@H](O)CC[C@]2(C)[C@@]12Cc1c(O)cc3c(c1O2)CN([C@@H](CCC(=O)O)C(=O)O)C3=O (stereo not given in full) | 5.28 | 3.52 | 8.54 | -11.5 | 0.317
CC1C(=O)CC2C3C(O)CC(C(=O)O)C12CC3(C)C (stereo not given) | 4.78 | 3.52 | 0.661 | -8.51 | 4.93
CCC(C)C(=O)OC[C@H]1O[C@H](O[C@H]2O[C@H](CO)[C@@H](O)[C@H](O)[C@H]2O)[C@H](O)[C@@H](O)[C@@H]1O (stereo not given in full) | -0.268 | 2.93 | 0.65 | -9.71 | 3.97
